Consider 58 compounds from PMC4336329 (PLoS ONE, 2015).

About 14,000 (4.5%) of roughly 310,000 compounds showed an effect of 50% or more. The effect is printed as a negative number. Some of the results follow.
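Also: peak tail current of the secondary pulse compared with the same well before compound.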

For the test, the target named is human ether-à-go-go-related gene (hERG) potassium channel (human, UniProt Q12809). The test is described as follows: primary screen, population patch clamp on CHO cells stably expressing hERG.
Chain of human ether-à-go-go-related gene (hERG) potassium channel (Q12809 whole entry, looked up): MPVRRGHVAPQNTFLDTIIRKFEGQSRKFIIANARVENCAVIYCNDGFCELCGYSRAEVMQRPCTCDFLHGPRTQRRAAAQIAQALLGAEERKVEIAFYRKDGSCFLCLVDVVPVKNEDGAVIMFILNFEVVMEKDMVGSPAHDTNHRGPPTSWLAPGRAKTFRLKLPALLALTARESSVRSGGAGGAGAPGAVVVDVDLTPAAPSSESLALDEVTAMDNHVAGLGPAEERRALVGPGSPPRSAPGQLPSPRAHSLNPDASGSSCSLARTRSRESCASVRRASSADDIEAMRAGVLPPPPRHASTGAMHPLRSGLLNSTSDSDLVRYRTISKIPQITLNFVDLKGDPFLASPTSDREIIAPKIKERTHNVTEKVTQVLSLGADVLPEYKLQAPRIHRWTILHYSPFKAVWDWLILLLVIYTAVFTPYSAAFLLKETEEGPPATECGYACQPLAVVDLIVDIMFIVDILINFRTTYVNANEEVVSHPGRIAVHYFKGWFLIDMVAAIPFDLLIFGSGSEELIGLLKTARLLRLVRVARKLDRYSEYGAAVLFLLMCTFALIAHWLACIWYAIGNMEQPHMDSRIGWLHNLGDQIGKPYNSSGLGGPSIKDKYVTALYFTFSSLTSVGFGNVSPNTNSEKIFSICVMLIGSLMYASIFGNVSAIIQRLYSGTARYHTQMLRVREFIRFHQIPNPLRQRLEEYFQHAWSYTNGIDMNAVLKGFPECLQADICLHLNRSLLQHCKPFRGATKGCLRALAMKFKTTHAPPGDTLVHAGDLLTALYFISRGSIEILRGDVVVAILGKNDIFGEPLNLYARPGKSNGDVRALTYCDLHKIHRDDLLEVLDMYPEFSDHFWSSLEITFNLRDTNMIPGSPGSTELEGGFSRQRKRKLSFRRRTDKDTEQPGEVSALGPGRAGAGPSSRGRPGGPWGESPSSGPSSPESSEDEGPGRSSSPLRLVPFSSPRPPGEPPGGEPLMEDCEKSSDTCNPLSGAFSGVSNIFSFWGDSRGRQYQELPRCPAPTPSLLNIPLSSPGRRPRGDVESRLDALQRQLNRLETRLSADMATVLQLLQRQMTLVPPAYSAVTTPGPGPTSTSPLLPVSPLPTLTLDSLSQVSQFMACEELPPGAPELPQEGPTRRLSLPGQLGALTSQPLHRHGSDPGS
As to `Cc1ccc(S(=O)(=O)NNC(=S)Nc2ccc(Cl)cc2)cc1`, the “hERG current change (%, negative = inhibition) at 10uM” value is -4.34%.
The same measure for `Cc1ccc(CNC(=O)C2CCCCN2S(=O)(=O)c2ccccc2)cc1` (stereo not shown): -3.68%; for `COc1ccc(NC(=O)C2CC(=O)N(C)C(=Nc3ccc4c(c3)OCO4)S2)cc1` (stereo not shown): -9.73%; for `Cc1ccc(NC(=O)NNC(=O)COc2ccc3ccccc3c2)cc1`: 20.4%.
In the case of `CC1CCCCC1NC(=O)CCN1C(=O)C2C3C=CC(C3)C2C1=O` (stereo not shown) it was 13%; in that of `COc1ccccc1CNC(=O)CSc1nnc2ccc(-c3cccnc3)nn12`, -21.9%; in that of `CCc1ccccc1NC(=O)C(C)n1nc([N+](=O)[O-])c(Br)c1C` (stereo not shown), 8.38%.
The same measure for `CCCn1c(Nc2ccccc2)nc2ccccc21`: 4.68%; for `Cc1cc(C)c(N(C(=O)c2csnn2)C(C(=O)NC(C)(C)C)c2ccncc2)c(C)c1` (stereo not shown): 9.01%; for `CC(C)N1CCN(Cc2c[nH]c3ccccc23)CC1CCO` (stereo not shown): 5.6%.
With `CS(=O)(=O)N1CCN(c2ccc(NC(=O)c3cccnc3Cl)cc2)CC1`, the “hERG current change (%, negative = inhibition) at 10uM” value is given as 13.3%.
As to `CC(C)OP(=O)(OC(C)C)C(O)c1ccccc1F` (stereo not shown), the “hERG current change (%, negative = inhibition) at 10uM” value came to 9.98%.
The same measure for `COc1ccccc1N1CCN(C(=O)Cn2cnc3c2c(=O)n(C)c(=O)n3C)CC1`: 8.8%; for `Cc1ccc(NC(=O)NC(=O)N(C(C)C)S(C)(=O)=O)nc1`: -8.32%.
Turning to `O=C(Cc1ccccc1[N+](=O)[O-])N1CCN(c2ccccc2F)CC1`, the “hERG current change (%, negative = inhibition) at 10uM” value stood at 3.23%.
For the compound `Cc1sc2ncnc(NCC3(N4CCOCC4)CCCCC3)c2c1C`, the “hERG current change (%, negative = inhibition) at 10uM” value is -71.1%.
On to `CC(O)CNc1nc(NCc2ccccc2)c2cnn(C)c2n1` (stereo not shown), for which the “hERG current change (%, negative = inhibition) at 10uM” value was 16.9%.
In the case of `Cn1c(CNc2ccc(Cl)cc2)nnc1SCCN1CCCCC1` it was -46.4%; in that of `CSCC[C@H](NC(=O)[C@@H]1Cc2ccccc2CN1)C(=O)NC1CCCCC1`, 5.97%.
The same measure for `Fc1ccccc1COc1cccc2cccnc12`: 3.54%; for `COc1ccccc1NC(=S)c1ccccc1`: -2.01%.
In the case of `CCOc1ccc(C2C(C(=O)c3cccs3)=C(O)C(=O)N2Cc2cccnc2)cc1OC` (stereo not shown) it was 0.162%.
On to `COc1ccc(C2=NN(C(=O)c3cccs3)C(c3ccc(OC)cc3)C2)cc1` (stereo not shown), for which the “hERG current change (%, negative = inhibition) at 10uM” value came to 17.1%.
The same measure for `CCOC(=O)c1ccc(N/C=C/C(=O)c2ccc(OC)cc2)cc1`: 13.7%; for `CC12CCC(C[N+](C)(C)C1)C2(C)C.[I-]` (stereo not shown): 15.8%; for `Cc1ccc(N(CC(=O)N2CCN(Cc3ccccc3)CC2)S(C)(=O)=O)cc1C`: -7.28%.
In the case of `CC(C)OCCOc1ccc2oc(-c3ccco3)cc(=O)c2c1` it was -12.9%; in that of `CN(CC(=O)Nc1ccccc1Cl)C(=O)CSc1nnc(N)s1`, -1.75%; in that of `COc1ccc(NS(=O)(=O)c2ccc(C)c(C(=O)N3CCC3)c2)cc1`, 0.971%.
In the case of `CC(O)c1nc2ccccc2n1CCCCOc1ccccc1` (stereo not shown) it was 2.21%.
On to `Cc1cc(OC(C)C(=O)N(Cc2ccco2)C2CCS(=O)(=O)C2)ccc1Cl` (stereo not shown), for which the “hERG current change (%, negative = inhibition) at 10uM” value was -29%.
The same measure for `CCc1ccc(CNC(=O)Cn2nc(-c3ccc(C)cc3)ccc2=O)cc1`: -39.2%.
In the case of `O=C(O)c1cccc(S(=O)(=O)NCCc2ccccc2)c1` it was 14.4%; in that of `O=C(CNC(=S)N(CCCN1CCOCC1)Cc1cccs1)NCc1ccc(Cl)cc1`, -67.7%; in that of `COC(=O)c1cc(-c2c(-c3cc(OC)c(OC)c(OC)c3)noc2C)cc([N+](=O)[O-])c1`, -67.8%.
The same measure for `COCc1cc(=O)n2[nH]c(-c3ccco3)cc2n1`: 12.4%; for `Fc1ccc(-n2nnc(-c3ncc[nH]3)n2)cc1`: 3.42%; for `COCc1nnc(NC(=O)CS(=O)(=O)c2ccc(C)cc2)s1`: 17.6%.
For the compound `Cc1ccc2c(c1)C(C)(C)[C@]1(C)NC(=O)CCN21`, the “hERG current change (%, negative = inhibition) at 10uM” value is given as -0.041%.
In the case of `c1ccc(Nc2cccc(Nc3ccccc3)n2)cc1` it was -19.2%; in that of `COc1ccc(-c2nn(CCC#N)cc2C(=O)Nc2ccccc2)cc1OC`, -6.03%.
Take `CCn1c(-c2ccsc2)nc2c1c(=O)[nH]c(=O)n2Cc1ccccc1`: the “hERG current change (%, negative = inhibition) at 10uM” value is recorded as 13.5%.
The same measure for `Cc1ccc(S(=O)(=O)/N=C(/Nc2cccc(O)c2)c2ccccc2)cc1`: -2.51%; for `Cc1cc(C(=O)C(C)Cl)c(C)n1Cc1ccco1` (stereo not shown): 1.07%; for `O=C1c2ccccc2C(=O)N1OS(=O)(=O)c1ccccc1`: 11%.
For the compound `COc1ccc2oc(C(=O)Nc3nc4ccccc4[nH]3)c(C)c2c1`, the “hERG current change (%, negative = inhibition) at 10uM” value came to 9.31%.
`CCCCOc1ccc(C(=O)Oc2cc(C)[nH]c(=O)c2[N+](=O)[O-])cc1`: the “hERG current change (%, negative = inhibition) at 10uM” value turned out to be 18.6%.
The same measure for `CSCCC(=O)N1CCCC(N(C)CCc2ccccc2)C1` (stereo not shown): -56.8%; for `NS(=O)(=O)c1ccc(NC(=O)COC(=O)c2ccc([N+](=O)[O-])s2)cc1`: 2.2%.
On to `CCc1ccc(OC)c(S(=O)(=O)Nc2ccccc2C)c1`, for which the “hERG current change (%, negative = inhibition) at 10uM” value came out at 3.86%.
The same measure for `Cc1cccc(-n2c(C)cc(/C=N/NC(N)=S)c2C)c1`: -11.8%; for `Cc1ccc(S(=O)(=O)N2CCCC(c3nnc4n3-c3ccccc3SC4)C2)cc1` (stereo not shown): -92.8%; for `CN(C)C(CNS(=O)(=O)c1ccc(Br)cc1)c1cccnc1` (stereo not shown): -11.3%.
The same measure for `Cc1cccc(C)c1NC(=O)CSc1nc(N2CCOCC2)nc(N2CCOCC2)n1`: 14.4%.
In the case of `CC(O)(CS(=O)(=O)Cc1ccccc1)c1ccccc1Cl` (stereo not shown), the “hERG current change (%, negative = inhibition) at 10uM” value was determined as 11.2%.
In the case of `O=C(NCC1CC1)[C@@H]1C[C@H]1[C@@H](NP(=O)(c1ccccc1)c1ccccc1)c1ccccc1` it was -13.9%; in that of `c1ccc(SCCN2CCc3ccccc3C2)cc1`, -19.3%; in that of `Cc1ccc(NC(=O)c2ccc3c(c2)OCCO3)nc1`, 18%.
